Source: paper PMC4336329 (PLoS ONE, 2015)
Out of some 310,000 compounds screened, about 14,000 (4.5%) showed an effect of 50% or more. Effects have a minus sign here. The list shows a part of the results.

molecular target: human ether-à-go-go-related gene (hERG) potassium channel (human, UniProt Q12809); assay: primary screen, population patch clamp on CHO cells stably expressing hERG
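Further: peak tail current of the secondary pulse compared with the same well before compound.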

Chain of human ether-à-go-go-related gene (hERG) potassium channel (Q12809 whole entry, looked up): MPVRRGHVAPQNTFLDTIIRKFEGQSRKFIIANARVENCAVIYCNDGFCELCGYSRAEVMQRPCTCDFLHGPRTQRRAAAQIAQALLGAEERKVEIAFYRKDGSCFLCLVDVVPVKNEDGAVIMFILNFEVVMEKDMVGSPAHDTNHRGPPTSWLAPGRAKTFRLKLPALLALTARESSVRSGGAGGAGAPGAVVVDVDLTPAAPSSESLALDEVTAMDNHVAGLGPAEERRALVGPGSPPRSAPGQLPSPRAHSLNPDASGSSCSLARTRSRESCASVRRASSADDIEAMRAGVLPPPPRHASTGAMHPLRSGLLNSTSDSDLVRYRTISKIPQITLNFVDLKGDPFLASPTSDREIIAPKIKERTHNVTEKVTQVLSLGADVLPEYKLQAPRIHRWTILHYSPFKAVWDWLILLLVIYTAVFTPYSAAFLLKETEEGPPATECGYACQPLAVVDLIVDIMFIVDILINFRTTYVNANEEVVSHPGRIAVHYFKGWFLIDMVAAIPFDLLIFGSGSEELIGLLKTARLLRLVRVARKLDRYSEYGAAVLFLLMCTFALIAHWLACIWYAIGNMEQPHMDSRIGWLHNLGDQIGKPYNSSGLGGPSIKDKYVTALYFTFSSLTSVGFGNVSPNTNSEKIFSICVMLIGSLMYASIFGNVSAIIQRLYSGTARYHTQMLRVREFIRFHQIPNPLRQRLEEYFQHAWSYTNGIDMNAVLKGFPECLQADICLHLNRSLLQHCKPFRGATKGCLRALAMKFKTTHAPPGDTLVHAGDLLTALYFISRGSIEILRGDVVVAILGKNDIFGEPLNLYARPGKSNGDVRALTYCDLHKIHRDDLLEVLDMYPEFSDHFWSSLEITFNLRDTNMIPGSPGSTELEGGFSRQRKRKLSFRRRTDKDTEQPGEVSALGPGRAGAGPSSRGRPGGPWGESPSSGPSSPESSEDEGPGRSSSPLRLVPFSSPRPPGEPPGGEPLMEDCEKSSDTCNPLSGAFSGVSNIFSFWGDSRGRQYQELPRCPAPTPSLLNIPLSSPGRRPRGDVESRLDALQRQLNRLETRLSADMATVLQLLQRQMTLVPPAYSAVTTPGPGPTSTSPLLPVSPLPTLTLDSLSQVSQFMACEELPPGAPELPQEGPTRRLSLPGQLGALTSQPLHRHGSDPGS

SMILES | hERG current change (%, negative = inhibition) at 10uM [%]
CC(CNC(=O)C1CCCCC1)NC(=O)C1CCCCC1 (centres unmarked) | -3.66
O=C(Cn1cc2c(n1)CCCC2)NCCCN1CCN(Cc2ccccc2)CC1 | -21.4
Cc1cc(NC(=O)c2cc(-c3ccc4c(c3)OCO4)on2)n(-c2ccccc2)n1 | 13.5
Cc1cccc(NC(=O)CSc2ncnc3sc(C)cc23)c1 | 1.82
CC(C)(C)c1ccc(C(=O)N/C(=C/c2cccs2)C(=O)NCc2ccco2)cc1 | -6.48
CC1CCN(c2c(NCC3CCC(C(=O)NCc4ccccc4)CC3)c(=O)c2=O)CC1 (centres unmarked) | 10.5
CN(C)CCOC(=O)CCCCCCCCC(=O)OCCN(C)C.Cl | 6.69
COc1ccc(C(=O)O)cc1S(=O)(=O)NC(C)(C)C | 6
CCOC(=O)C1CCCN(C(=O)CSc2ccc(Br)cc2)C1 (centres unmarked) | -33.6
O=C(O)CCc1ccc(-c2ccc(F)cc2)n1CC1CCCO1 (centres unmarked) | -22.5
CCCCCCn1c(O)c(/C=N/N2CCCCCC2)c(=O)[nH]c1=O | 5.19
CNC(=O)c1sc(-c2cccs2)nc1C | 16.1
O=C(CC(=O)N/N=C/c1ccc(F)cc1)N/N=C/c1ccc(F)cc1 | 20.8
C=CCNC(=O)NC(=O)CN1C(=O)NC(c2ccccc2)(c2ccccc2)C1=O | -69.5
COC(=O)c1c(NC(=O)C(C)C)sc2c1C(C(=O)OC)CC2 (centres unmarked) | 11.8
COc1ccc(N2CC(C(=O)N[C@H](C(=O)NC3CCCC3)C(C)C)CC2=O)cc1 (some centres unmarked) | 25.1
COc1ccc(/C=C/CN2CCC(n3nccc3NC(=O)C3CCCC3)CC2)cc1 | -88.6
O=c1[nH]cc(C(F)(F)F)cc1NS(=O)(=O)c1ccc([N+](=O)[O-])cc1 | -7.67
CCOc1ccccc1N1CC(C(=O)N2CCOCC2)CC1=O (centres unmarked) | 13.9
CC(NC(=O)CCn1c(=S)[nH]c2ccsc2c1=O)c1ccccc1 (centres unmarked) | 9.87
Cc1cccc(NC(=O)/C(C#N)=C/c2ccc(Sc3ccccc3)o2)c1C | 8.77
CCNC(=O)N1CCCC(C(=O)c2ccc3cc(OC)ccc3c2)C1 (centres unmarked) | -22.5

SMILES | hERG current change (%, negative = inhibition) at 10uM [%]
C=CCOc1cccc(/C=N/NC(=O)CN(c2cc(Cl)ccc2OC)S(=O)(=O)c2ccc(C)c([N+](=O)[O-])c2)c1 | 9.82
Cc1ccc(Nc2cc(=O)[nH]c(=O)[nH]2)cc1C | 6.01
N#C/C(=C\c1cn(CCOc2ccccc2)c2ccccc12)C(=O)NCc1ccco1 | -1.02
CCn1nnc(NC(=O)c2c(OC)cccc2OC)n1 | 7.73
CSC1=NCCN1C(=O)c1ccc(S(=O)(=O)N2CCCCC2)cc1 | 5.3
Cn1c(=O)[nH]c(=O)c2c1nc(N1CCCCCC1)n2CCOc1ccccc1 | -5.49
COc1cc2ccccc2cc1C(=O)N1CCCCC1 | -0.827
Cc1cc(=O)cc(C)n1-c1ccc(F)cc1F | 0.384
c1ccc(C(c2ccccc2)N2CCN(C(c3ccccn3)c3nnnn3C3CCCC3)CC2)cc1 (centres unmarked) | 15.5
CCCCSc1n[nH]c(N)n1 | 14
CCOC(=O)C1C(=O)C=C(N2CCOCC2)CC1c1cccc(OC)c1 (centres unmarked) | 7.18
CCOc1ccc(C(CCc2ccccc2)NC(=O)c2ccccc2F)cc1OCC (centres unmarked) | 11.1
CN(Cc1cnn(C)c1)C(=O)c1cc(COc2c(F)cccc2F)on1 | 7.79
CCOC(=S)SCC(=O)Nc1nc(C)c(C)s1 | 2.61
Cc1ccc(-c2cc(C(F)(F)F)c(C#N)c(SCCC#N)n2)o1 | 4.81
CC(=O)Oc1cccc(NC(=O)c2ccc3c(c2)C(=O)N(CC(C)C)C3=O)c1 | 11.2
COc1ccc(Nc2nc(N)nc(CSC(=S)N3CCOCC3)n2)cc1 | -7.13
Cc1ccc(/C=C2\SC(=S)N(CCCC(=O)Nc3ccc(O)cc3)C2=O)cc1 | 3
CC1(C)CC(=O)C(C=NCCc2ccc(O)cc2)=C(O)C1 | 8.99
CCCCCNC(=O)c1cccc(S(=O)(=O)N2CC3(C)CC2CC(C)(C)C3)c1 (centres unmarked) | -1.24
OCCCNc1ncnc2c1[nH]c1ccccc12 | 13.2
O=C(Cc1ccc(Cl)cc1)Nc1ccc(N2CCCC2)cc1 | 17.3
